# Measurements reported in the supplement of paper PMC10338343.
# ± gives the standard deviation. This is a selection; strong and weak results do not stand in their true shares.
# Test system: MIWI (PIWIL1) piRISC loaded with L1MC piRNA (30 nt)
# Test: pre-steady-state target cleavage rate (min^-1); MIWI and MILI are mouse PIWI proteins and EfPiwi is from a freshwater sponge; tags in brackets are library labels; higher = faster piRNA-guided slicing of the target
# Conditions: guide: L1MC piRNA 5'p-UAACUAAAUACUAUGCAAGCUGUAGGUCCU
# How it was run: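 In HEPES–potassium acetate buffer at 33 °C, […] transcribed, DNA-blocked target RNA library was mixed with 1 nM active affinity-purified piRISC carrying one synthetic guide, with or without 500 nM GTSF1 partner protein, for 0–8 or 0–960 min. Uncleaved targets were sequenced and normalised to depth and to weakly complementary targets; three trials were pooled and k3 was capped at 0.0001 min^-1. The pre-steady-state cleavage rate followed from a burst-and-steady-state fit.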
# [1] = auxiliary factor: 500 nM mouse GTSF1
# [2] = auxiliary factor: none (no GTSF1)
# 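Further: 1 nM active piRISC with 0.1 nM target library at 33 °C single turnover.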
Sequence,pre-steady-state target cleavage rate [1],pre-steady-state target cleavage rate [2]
UCGACCUACAGCUUGCAUAGUAGUUAGUUA,0.746 ± 0.036,0.0262 ± 0.0058
UCCUGGAUGUCCUUGGAUAGUAUUUAGUUA,0.167 ± 0.028,0.00666 ± 0.0021
UCCUGCUAGAGCUUGCAUAGUAUUUAGAAA,0.374 ± 0.068,0.00336 ± 0.0028
UCGACCUACAGGUUGCAUACUAUUUAGUUA,0.273 ± 0.018,0.0207 ± 0.004
AGGACCUUGUGCUUGCAUAGUAUUUAGUUA,0.869 ± 0.046,0.0654 ± 0.012
UCCUGCUUCUGCUUGCAUAGUAUUUAGUUA,0.606 ± 0.03,0.0455 ± 0.0097
UCCUGGAUGAGCUUGCAUAGUACUUAGUUA,0.444 ± 0.037,0.0355 ± 0.0099
UGGACCAACAGGUUGCAUAGUAUUUAGUUA,1.06 ± 0.055,0.0448 ± 0.0074
UCGAGCUACUGCUUGCAUAGUAUUUAGUUA,1.15 ± 0.053,0.0574 ± 0.0096
UCCUGCAUGAGCUUGCAUAGUAUUUAGUAA,0.824 ± 0.1,0.0221 ± 0.0066
UCCUGCUACAGCUUGCACAGUAUUUAGUUA,0.627 ± 0.029,0.0506 ± 0.0074
UCCUGGAUGUGCUUGCAUAAUAUUUAGUUA,0.21 ± 0.021,0.0165 ± 0.0044
UCCUGGAACAGCUUGCAAAGUAUUUACAAA,0.149 ± 0.03,0.00442 ± 0.0026
UCGACCUACAGCUUGCAUAGAAAUUAGUUA,0.248 ± 0.032,0.0042 ± 0.0022
AGGUCCUACAGCUUCCAUAGUAUUUAGUUA,0.237 ± 0.063,0.0046 ± 0.0032
UGGACCUACAGCUUGCAUACUAUUUACAAA,0.0671 ± 0.012,0.00312 ± 0.0024
AGGACCUACACCUUGCAUAGUAUAUAGUUA,0.744 ± 0.062,0.0313 ± 0.0065
UCCUCCUACACCUUGCAUAGUAUAUAGUUA,0.51 ± 0.055,0.0176 ± 0.0031
UCCUGCUACAGCUUGCAUACUAUAUAGUUA,0.199 ± 0.02,0.0106 ± 0.0021
UCCUCCUACAGCUUGCAUUGUUUUUAGUUA,0.0961 ± 0.01,0.00646 ± 0.0013
